Consider 44 sequences from the supplement of paper PMC11417369.

The list shows a part of the results.

The test system of the test is PfHDP1 homeodomain (GST-tagged). Put plainly: gcPBM binding intensity (ln(normalized median fluorescence intensity)); higher = stronger DNA binding. The method, boiled down: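 In this array assay, P. falciparum DNA-binding domains with a GST tag, expressed in E. coli, were applied for 1 h to primer-extended double-stranded 36-bp intergenic genomic probes and negative controls on an Agilent 4 × 180k array. Bound protein was visualised with Alexa488 anti-GST antibody at 488 nm. Binding intensity is the highest Masliner-normalised natural-log median intensity across replicate spots of either probe orientation.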
Regarding “AATTTTATTACTTTTACACACCTATATATTATTCAT [CACACA_site3273]”, the “gcPBM binding intensity (ln)” value was found to be 6.91.
Under “ATTATTTTATTATAGTGTACTTTTTTAATCAAAGGA [XGTACX_site8921]” stands 6.23; under “TACTCATAATATTGATAATTAAAAAGATAAACTATT [XGTACX_negctrl_site299]”, 6.09; under “ATTTTAATTACATATACACACAAAGGTTCATAACAA [CACACA_site9008]”, 6.62.
Under TATGTTTTTACGTGTGTGCACTTTGTAGAGATAAGT stands 9.47.
Regarding “GATAACATAATATGTTGTACATAAAAATTTTTATCA [XGTACX_site1969]”, the “gcPBM binding intensity (ln)” value was found to be 6.55.
On to “ATCAATTTAATTTATTGTACTTGTTTGTTTTTTTAT [XGTACX_site7544]”, for which the “gcPBM binding intensity (ln)” value worked out at 6.25.
For “ATAAAGATATGACACACACACATATTATAGATATAT [CACACA_site7434]”, the “gcPBM binding intensity (ln)” value was 6.69.
Under “AACTTATTTAAATTCACACATATATAAAATACTTAT [CACACA_site4394]” stands 6.57.
With “ACATATGACTATAATACACACTTGTATTATTAATAT [CACACA_site6951]” the figure was 6.41; with “CATTATCATGTTTTTTGTACTCATAATAAAAAGCAG [XGTACX_site2056]”, 6.49.
Consider “CAAGGAACCGGACACACACACATAAATGTATTTATA [CACACA_site4574]”, for which the “gcPBM binding intensity (ln)” value came to 6.45.
Take “AAAAATGAATTATTTTGTACATATATATATATATAT [XGTACX_site3410]”: the “gcPBM binding intensity (ln)” value stood at 9.34.
Regarding “AATAATTGTTAAAGTTGTACTATACGTATATAAGAA [XGTACX_site1432]”, the “gcPBM binding intensity (ln)” value is 6.94.
Regarding “TATATATAGAAACACACACACACCAAAGCGTAGCGC [CACACA_site62]”, the “gcPBM binding intensity (ln)” value turned out to be 6.63.
Consider “ATTTACAAAAGGAAAGTGCAAACATGTGATTAAACA [CACACA_negctrl_site714]”, for which the “gcPBM binding intensity (ln)” value stood at 8.57.
Under “GCCAAAAGGATATGCACACACACACCCATATATATA [CACACA_site2198]” stands 9.58; under “AAAGGATATAGACACACACACACATATATATATATA [CACACA_site2200]”, 9.24.
Consider “ATCATTTTTAAAGGAACACACAAAAAAAATTAGAAT [CACACA_site1370]”, for which the “gcPBM binding intensity (ln)” value was 6.83.
With “GTTCAAAATATGAACACACACATATAGATTTATATA [CACACA_site7054]” the figure was 6.43; with “CATATACATCCACATACACACATACACCCATACACA [CACACA_site5038]”, 7.3.
For “TGAAAAGTAAAATACACACACATAATATAATTTATA [CACACA_site1989]”, the “gcPBM binding intensity (ln)” value is 6.7.
With “ATTATTTTTTTTGTTACACACATGACTTATTTTTAT [CACACA_site3228]” the figure was 6.99.
With “TTAATTATAAGAAAAAGTACTCATTACATTATAGAA [XGTACX_site678]” the figure was 6.12.
As to “ATATAAATATTCCACACACACACAAAAAAAAAAAAA [CACACA_site7678]”, the “gcPBM binding intensity (ln)” value was found to be 6.44.
As to “TAGTCGTTTTTTTAATGTACTCACGCATAATATAAT [XGTACX_site6499]”, the “gcPBM binding intensity (ln)” value came out at 6.55.
With “AAAATATGTATGTAAAGTACTAATATACAAATTTTT [XGTACX_site5186]” the figure was 6.23.
As for “TATTTTTATATATGACGTACTCTACAATTATTAATG [XGTACX_site5818]”, the “gcPBM binding intensity (ln)” value worked out at 6.54.
Under “TTTTTTTTTTTTGATGCACACACCTGAACGAGTTAA [CACACA_site317]” stands 7.95; under “TATATGAACTTATATACACACCATTTTTGTAAATCT [CACACA_site4547]”, 6.53.
Regarding “TATAATATATTATATACACACATTATGAAATCCACA [CACACA_site1330]”, the “gcPBM binding intensity (ln)” value worked out at 6.86.
Under “AACACGCGCAGACACACACACACACCCACATATATA [CACACA_site2205]” stands 6.95; under ATTTTGATGCATGGGTTGCACTAACTTTTGCCCAGA, 8.83; under “AAACAATACTGATATTGTACATAATAAAAAAAAATA [XGTACX_site3330]”, 6.46.
“ATAAATATATTTTATAGTACATAAATATCAAAAAAA [XGTACX_site2334]”: the “gcPBM binding intensity (ln)” value is 6.3.
With “AGTATACAGATATATACACACATATTTATATTTATA [CACACA_site6394]” the figure was 6.44; with “CATACATACCTATATACACACATATAAAATAATATA [CACACA_site7290]”, 6.97.
Under “TGTTATTATTTGTACACACACATATATATCCTTGTT [CACACA_site3616]” stands 6.98; under “GGCAACATTTGAAACACACACACATACAAACAAACA [CACACA_site3307]”, 7.2.
With “TCTATATGTTGATTCACACATAAAGAATAAATAAAA [CACACA_site6017]” the figure was 6.19.
Regarding “AAAAAAAATTATATATGTACTTATTAATCCTTTTAT [XGTACX_site1387]”, the “gcPBM binding intensity (ln)” value came to 6.11.
Consider “TATAATAATAATAATAATAATAATAATAATAATAAT [CACACA_negctrl_site905]”, for which the “gcPBM binding intensity (ln)” value came out at 6.89.
Turning to “CGCATAAAGACAAGAACACACATATAGATTGTAGTA [CACACA_site3693]”, the “gcPBM binding intensity (ln)” value turned out to be 6.15.
With “AAGATGATAAAATATGTACACACAGTTTATACATTT [CACACA_site9341]” the figure was 6.03.
